Paper PMC12136788
The other results are listed elsewhere or left out.

B1: chr6:11883424:11883425:+_ENSMUSG00000029629_ENSMUST00000115511|mus_mus|FALSE|FALSE (ssRNA)
RNA: GGGAGUUCUACAGUCCGACGAUCCUUUUUCUUUCUAGGUCUUUCUCCGUUUUCUUCUUCUUCCUUCUUUUCCAUUUUAAUUAACUGUUUGUCUGAUGGCAUUAUUUCCUCUGUAGAAUUUUUAAGCUGUUCUUCUUUUACUUGCAACAGAGGAUUGAGCAUCA
B2: chr4:43046810:43046811:-_ENSMUSG00000036002_ENSMUST00000107956|mus_hu|FALSE|FALSE (ssRNA)
RNA: GGGAGUUCUACAGUCCGACGAUCAAAGAGGCGAUGGCGCAGGAAGGUCAUGUGGGCAGCAGGCAUGUCCGAGAAGUCAAAGGUCACAAGGAACAUCUUUACCACAGUCUGGUUGGGGUUAAAUAAGGUCACUUGGACGGUGCCCAACAGAGGAUUGAGCAUCA
B3: chr5:177634160:177634161:+_ENSG00000197451_ENST00000358344|hu_mus|FALSE|FALSE (ssRNA)
RNA: GGGAGUUCUACAGUCCGACGAUCACUGACAGUAUGAAAUUUCUUCUCCAGAACUUUCUUCACAGGAUCUUCCUCUUUAAAUGUAAUAAAAACAAAACCCCGUCUUUUGUUCAACUUGGGAUCUAUUGGAAGCUCAAUGGCCUCCAACAGAGGAUUGAGCAUCA
B4: chr7:19156472:19156473:-_ENSG00000122691_ENST00000242261|hu_hu|FALSE|FALSE (ssRNA)
RNA: GGGAGUUCUACAGUCCGACGAUCGCUGCAGCUUGCCAUCUUGGAGUCCAGCUCGUCGCUCUGGAGGACCUGGUAGAGGAAGUCGAUGUACCUGGCCGCCAGCUUGAGGGUCUGAAUCUUGCUCAGCUUGUCCGAGGGCAGCGUCAACAGAGGAUUGAGCAUCA
B5: chr14:90870812:90870813:+_ENSG00000198668_ENST00000553542|hu_mus|FALSE|FALSE (ssRNA)
RNA: GGGAGUUCUACAGUCCGACGAUCAUCAAUAUCUGCUUCUCUGAUCAUUUCAUCUACUUCUUCAUCUGUUAGCUUUUCUCCUAAGUUUGUCAUGACGUGGCGCAGUUCUGCCGCACUGAUGUAACCAUUCCCAUCCUUGUCAAACAACAGAGGAUUGAGCAUCA
B6: chr6:40197388:40197389:+_ENSMUSG00000057716_ENSMUST00000061740|mus_mus|mus_mus_mus_hu_False|28_68 (ssRNA)
RNA: GGGAGUUCUACAGUCCGACGAUCGAGACACUGGGGUGGAUUUAUUCCACCUCUGUUUGGGUGCUAGUAAGAUAGAUUGUUAUUUUGGGAUUCAUGGCCUUGAAUAUCAAGAGGAAAAGGAAGAGGAUGGAAAGAGUCAAGAGUCAACAGAGGAUUGAGCAUCA

Biological target: T1, UNK ZnF1-3 (human, UniProt Q9C0B0 31-174)
T1 sequence: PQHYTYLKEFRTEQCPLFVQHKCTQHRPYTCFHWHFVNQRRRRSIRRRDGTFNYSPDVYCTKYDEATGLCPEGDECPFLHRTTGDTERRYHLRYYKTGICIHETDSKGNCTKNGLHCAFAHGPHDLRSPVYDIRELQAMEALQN
Test: nsRBNS (natural sequence RNA bind-n-seq); RBNS binding buffer (assumed for nsRBNS): 25 mM Tris pH 7.5, 150 mM KCl, 3 mM MgCl2, 0.01% Triton X-100, 500 ug/ml BSA, 20 U/ml SUPERase-In, 4 C; UNK is unkempt and MSI1 is Musashi-1; names of the RNAs are library labels; protein concentration not given here; high values mean tight binding

Binder	binding signal [enrichment R]
B1	0.21
B2	1.51
B3	1.13
B4	0.922
B5	0.507
B6	1.66
